According to paper PMC12136788:
This is one part of the list.

T1: UNK ZnF1-6 (called full-length) (human, UniProt Q9C0B0 30-357)
T1 sequence: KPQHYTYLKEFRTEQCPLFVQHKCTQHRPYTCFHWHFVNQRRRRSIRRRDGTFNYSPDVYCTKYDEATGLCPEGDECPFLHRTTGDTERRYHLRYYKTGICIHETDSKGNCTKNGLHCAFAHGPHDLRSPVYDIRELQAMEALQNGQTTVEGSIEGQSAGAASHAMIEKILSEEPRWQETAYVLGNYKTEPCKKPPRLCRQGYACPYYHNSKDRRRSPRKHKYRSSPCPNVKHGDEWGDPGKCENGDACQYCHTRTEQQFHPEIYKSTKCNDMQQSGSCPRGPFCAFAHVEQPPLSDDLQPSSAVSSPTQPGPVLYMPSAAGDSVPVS

B1: chr4:57023444:57023561:+|CDS|ENSG00000047315|unk|FALSE|unique (ssRNA)
RNA: GGGAGUUCUACAGUCCGACGAUCGAAUUGGAGAGCACCAAUAGACGCUAUACCAAGAGAGACUGUAGCACUUUUCUCAGAACUAGCGAGACGGGCAUUGUGGAUCAGGUUAUGGUAACUCUCAAUCAGGAAGGAUAUAAAUUUCAACAGAGGAUUGAGCAUCA
B2: chr12:1780521:1780622:+|CDS|ENSG00000006831|msi1|FALSE|bound_elsewhere (ssRNA)
RNA: GGGAGUUCUACAGUCCGACGAUCCCCAAAUAUCUCCUUUGUGGCCCCUCUGCAAGAGAAGGUGGUCUUUGGAUUAUUUUUCUUAGGAGCCAUUCUCUGCCUUUCUUUUUCAUGGCUCUUCCACACAGUCUACUGCCACUCAGACAACAGAGGAUUGAGCAUCA
B3: chr19:57593639:57593745:+|3pUTR|ENSG00000171649|unk|FALSE|unique (ssRNA)
RNA: GGGAGUUCUACAGUCCGACGAUCUGAACCUUCUUAUUUCUCUACAUUCUUGCCAUACUUGGUAUGGUUAGUCUUUUUAAUUUUAGUUGUUUUAAUAGCUGUAUAAUAGCAUCUGUCUGUGAUUUUAUUGCAUUUUUCUGGUAUCAACAGAGGAUUGAGCAUCA
B4: chr5:149977868:149977977:+|CDS|ENSG00000155850|unk|total|mutant (ssRNA)
RNA: GGGAGUUCUACAGUCCGACGAUCUAUUAAAAAGCUGCAGAAGAAUUGCCAGUGCAGUCCAGCCAAAGCCAAAAAUAUGAUUUCCGGUUUCCUUCCUGUUUUGCAGUGGCUCCCAAAAUACGACCUAAAGAAAAACAUUUCCGGCAACAGAGGAUUGAGCAUCA
B5: chr12:132079871:132079972:+|3pUTR|ENSG00000183495|msi1|FALSE|bound_elsewhere (ssRNA)
RNA: GGGAGUUCUACAGUCCGACGAUCAGAUGCUACCGUUGACCUGAGUUAAAUUCAUUUAGUCGUGUACGUAAAAACUCUCCUUUUAGUGUGUUAUUUUCUUGGCCUUCCCUUUUAAAGGUUAAAGUUUCUAACCUAAGAAUUAAGCAACAGAGGAUUGAGCAUCA
B6: chr14:52327222:52327364:+|CDS|ENSG00000125384|unk|FALSE|unique (ssRNA)
RNA: GGGAGUUCUACAGUCCGACGAUCAUUUUUGCAUAUAUGAAUGAAACCUCUUCCCGAAAGGAAAAAUGGGACCUCCAAGCUCUUAGGUUUUUAUCAAUUAAUUCAAUAAUUGACCCUUGGGUCUUUGCCAUCCUUAGGCCUCCUCAACAGAGGAUUGAGCAUCA
B7: chr14:74902662:74902763:+|3pUTR|ENSG00000119689|msi1|total|mutant (ssRNA)
RNA: GGGAGUUCUACAGUCCGACGAUCCCCCUGGGGACCAUGUGAUUAAGUUCCUAUCUUUUGAAAGUUUGUUCUGCAGAGACUUCCCGGAGGAUGCUGUGCCUCCCAAGCUCAGAGCAGCCUCUGUCCUGGCUGUGCACAUUCUCCCAACAGAGGAUUGAGCAUCA
B8: chr1:203741760:203741861:+|3pUTR|ENSG00000058668|msi1|total|mutant (ssRNA)
RNA: GGGAGUUCUACAGUCCGACGAUCAUUUUGGUUUUGUAAAACGUACAUGCUUCAAUAAUUCUUUUUUGUGUCUUAAAUACUCACCGGGGAAAAAAACAGCUCACCCAAGGUGUCCGGUUUCACAUAUAUAUUCAUCAACUAUUUCAACAGAGGAUUGAGCAUCA
B9: chr16:57253408:57253449:+|3pUTR|ENSG00000102931|msi1_unk|total|mutant (ssRNA)
RNA: GGGAGUUCUACAGUCCGACGAUCUGUGUGGCCGAUUACUUAUCAGAAAACAUAUAUGUCAUCUCCCGAACGAAGAAAAAGCACCGCCGUUCAAUUCCCAGUGUGUCCCUUUGAUUUUUUUUUUUUAACCGUAAAAAUAAGAAUCAACAGAGGAUUGAGCAUCA
B10: chr11:59152587:59152688:+|CDS|ENSG00000166801|msi1|FALSE|unique (ssRNA)
RNA: GGGAGUUCUACAGUCCGACGAUCAUUGAAAACUUCAAGAAAAAAAUGAAAGUAAAAAAUGGGGAAACAUUAUUUGAAUUGCAUAGAACAACGUUUGGGAAAGUAACAAAAAAUUCUUCUUCGAUUAAAGUAGUGAAACUUCUUCAACAGAGGAUUGAGCAUCA
B11: chr1:6224442:6224573:-|3pUTR|ENSG00000116237|msi1_unk|total|mutant (ssRNA)
RNA: GGGAGUUCUACAGUCCGACGAUCCUAUACAAUUUUAAAAAUACUUCCUCACCGGAUGCUUUGGCCCUUCAUCUAUUUAAUCACCGCUACAUACCUAUUUUUUAUAAGCCGCAGUACACAUUCAAAGGGGUAUUCCCCGCUCAACAACAGAGGAUUGAGCAUCA
B12: chr15:63775065:63775180:-|CDS|ENSG00000103657|unk|FALSE|unique (ssRNA)
RNA: GGGAGUUCUACAGUCCGACGAUCUGGUUCAGCAGAUGUCCAUUCUGUUAGUGAACGCCCCCGGUCAAGCACUGAUGCACUUAUAGAAAUGGGUGUUCGAACUGGUCUAAGUUUAUUAUUUGCGCUUCUAAGACAAAGUUGGAUCAACAGAGGAUUGAGCAUCA
B13: chr1:17407970:17408071:-|3pUTR|ENSG00000179051|msi1|FALSE|unique (ssRNA)
RNA: GGGAGUUCUACAGUCCGACGAUCGGGUACCGUUCUGCUGACCCAGCUCCCUUUAGUCACGUUUGCUUGGCUCUGGUACCAAAUAGUUGGGAUUACCGAAGAGUCCCCUUCCUUGCGUGUCAGCACGGAUGCUGUGACUGCCACCAACAGAGGAUUGAGCAUCA
B14: ENSG00000179431:stop:overlap|stop_codon|ENSG00000179431|stop_codon|NA|stop_codon (ssRNA)
RNA: GGGAGUUCUACAGUCCGACGAUCACUUCCUCGCCAAGCACAUUUUGCACUGUAAGGCCAAGUACGGCCGCCGGUCUGGGACUUAGUGUCACCGGGAGGAAAAGAGAGAGAUCUGGGGCUGGGGUAUGGAUGAUGGGGGGAAGGCAACAGAGGAUUGAGCAUCA

These binders were tested against T1, UNK ZnF1-6 (called full-length) (assay: nsRBNS (natural sequence RNA bind-n-seq); RBNS binding buffer (assumed for nsRBNS): 25 mM Tris pH 7.5, 150 mM KCl, 3 mM MgCl2, 0.01% Triton X-100, 500 ug/ml BSA, 20 U/ml SUPERase-In, 4 C; UNK is unkempt and MSI1 is Musashi-1; names of the RNAs are library labels; protein concentration not given here; high values mean tight binding).

Row | Binder | binding signal
1 | B1 | 2.23 enrichment R
2 | B2 | 0.583 enrichment R
3 | B3 | 122 enrichment R
4 | B4 | 0.398 enrichment R
5 | B5 | 3.82 enrichment R
6 | B6 | 4.52 enrichment R
7 | B7 | 0.463 enrichment R
8 | B8 | 0.74 enrichment R
9 | B9 | 0.356 enrichment R
10 | B10 | 0.453 enrichment R
11 | B11 | 3.91 enrichment R
12 | B12 | 0.696 enrichment R
13 | B13 | 2 enrichment R
14 | B14 | 0.579 enrichment R
